# Source: the supplement of paper PMC8728848
# The other results are listed elsewhere or left out.
# Tests used:
# Assay in all cases: glycan array binding signal (z-score within array); higher = stronger binding
# Settings in all cases: glycan notation: IUPAC condensed, linker removed
# [1] = target: Fuc(a1-3)[Gal(b1-4)]GlcNAc6S
# Outline: (§1)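 Glycan array binding is given as a within-array Z-score, which can be read as non-binding when negative. The arrays, 3228 of them, came from the Consortium for Functional Glycomics database and were retained only where the protein sequence was available. Z-scores were averaged across arrays of the same protein sequence at different concentrations or buffers and across linkers.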
# [2] = target: Fuc(a1-3)[Gal3S(b1-4)]Glc
# Outline: as §1
# [3] = target: Fuc(a1-3)[Gal3S(b1-4)]GlcNAc
# Outline: as §1
# [4] = target: Fuc(a1-3)[Gal3S(b1-4)]GlcNAc6S
# Outline: as §1
# [5] = target: Fuc(a1-3)[GalNAc(b1-4)]GlcNAc
# Outline: as §1
# [6] = target: Fuc(a1-3)[GalNAc(b1-4)]GlcNAc6S
# Outline: as §1
# Fuc(a1-4)GlcNAc = target: Fuc(a1-4)GlcNAc
# Outline: as §1
# Fuc(b1-3)GlcNAc = target: Fuc(b1-3)GlcNAc
# Outline: as §1
# Gal(a1-2)Gal = target: Gal(a1-2)Gal
# Outline: as §1
# Gal(a1-3)Gal = target: Gal(a1-3)Gal
# Outline: as §1
# Gal(a1-3)Gal(b1-3)GlcNAc = target: Gal(a1-3)Gal(b1-3)GlcNAc
# Outline: as §1
# [7] = target: Gal(a1-3)Gal(b1-3)GlcNAc(b1-2)Man
# Outline: as §1
# [8] = target: Gal(a1-3)Gal(b1-3)GlcNAc(b1-2)Man(a1-3)[Gal(a1-3)Gal(b1-3)GlcNAc(b1-2)Man(a1-6)]Man(b1-4)GlcNAc(b1-4)GlcNAc
# Outline: as §1
# [9] = target: Gal(a1-3)Gal(b1-3)GlcNAc(b1-3)GalNAc
# Outline: as §1
# [10] = target: Gal(a1-3)Gal(b1-3)GlcNAc(b1-6)GalNAc
# Outline: as §1
# [11] = target: Gal(a1-3)Gal(b1-3)[Fuc(a1-4)]GlcNAc(b1-2)Man(a1-3)[Gal(a1-3)Gal(b1-3)[Fuc(a1-4)]GlcNAc(b1-2)Man(a1-6)]Man(b1-4)GlcNAc(b1-4)GlcNAc
# Outline: as §1
# Gal(a1-3)Gal(b1-4)Glc = target: Gal(a1-3)Gal(b1-4)Glc
# Outline: as §1
# Gal(a1-3)Gal(b1-4)GlcNAc = target: Gal(a1-3)Gal(b1-4)GlcNAc
# Outline: as §1
# [12] = target: Gal(a1-3)Gal(b1-4)GlcNAc(b1-2)Man
# Outline: as §1
# [13] = target: Gal(a1-3)Gal(b1-4)GlcNAc(b1-2)Man(a1-3)[Gal(a1-3)Gal(b1-4)GlcNAc(b1-2)Man(a1-6)]Man(b1-4)GlcNAc(b1-4)GlcNAc
# Outline: as §1
# [14] = target: Gal(a1-3)Gal(b1-4)GlcNAc(b1-3)GalNAc
# Outline: as §1
# [15] = target: Gal(a1-3)Gal(b1-4)GlcNAc(b1-6)GalNAc
# Outline: as §1
# [16] = target: Gal(a1-3)Gal(b1-4)[Fuc(a1-3)]GlcNAc
# Outline: as §1
# [17] = target: Gal(a1-3)Gal(b1-4)[Fuc(a1-3)]GlcNAc(b1-2)Man(a1-3)[Gal(a1-3)Gal(b1-4)[Fuc(a1-3)]GlcNAc(b1-2)Man(a1-6)]Man(b1-4)GlcNAc(b1-4)GlcNAc
# Outline: as §1
# Gal(a1-3)GalNAc = target: Gal(a1-3)GalNAc
# Outline: as §1
# [18] = target: Gal(a1-3)[Gal(a1-4)]Gal(b1-4)GlcNAc
# Outline: as §1
# [19] = target: Gal(a1-4)Gal(b1-3)GlcNAc(b1-2)Man(a1-3)[Gal(a1-4)Gal(b1-3)GlcNAc(b1-2)Man(a1-6)]Man(b1-4)GlcNAc(b1-4)GlcNAc
# Outline: as §1
# Gal(a1-4)Gal(b1-4)Glc = target: Gal(a1-4)Gal(b1-4)Glc
# Outline: as §1
# Gal(a1-4)Gal(b1-4)GlcNAc = target: Gal(a1-4)Gal(b1-4)GlcNAc
# Outline: as §1
# [20] = target: Gal(a1-4)Gal(b1-4)GlcNAc(b1-2)Man(a1-3)[Gal(a1-4)Gal(b1-4)GlcNAc(b1-2)Man(a1-6)]Man(b1-4)GlcNAc(b1-4)GlcNAc
# Outline: as §1
# [21] = target: Gal(a1-4)Gal(b1-4)GlcNAc(b1-3)Gal(b1-4)Glc
# Outline: as §1
# Gal(a1-4)GlcNAc = target: Gal(a1-4)GlcNAc
# Outline: as §1
# Gal(a1-6)Glc = target: Gal(a1-6)Glc
# Outline: as §1
# Gal(b1-2)Gal = target: Gal(b1-2)Gal
# Outline: as §1
# Gal(b1-3)Gal = target: Gal(b1-3)Gal
# Outline: as §1
# Gal(b1-3)Gal(b1-4)GlcNAc = target: Gal(b1-3)Gal(b1-4)GlcNAc
# Outline: as §1
# Gal(b1-3)GalNAc = target: Gal(b1-3)GalNAc
# Outline: as §1
# [22] = target: Gal(b1-3)GalNAc(a1-3)[Fuc(a1-2)]Gal(b1-4)Glc
# Outline: as §1
# [23] = target: Gal(b1-3)GalNAc(a1-3)[Fuc(a1-2)]Gal(b1-4)GlcNAc
# Outline: as §1
# Gal(b1-3)GalNAc(b1-3)Gal = target: Gal(b1-3)GalNAc(b1-3)Gal
# Outline: as §1
# [24] = target: Gal(b1-3)GalNAc(b1-3)Gal(a1-4)Gal(b1-4)Glc
# Outline: as §1
# [25] = target: Gal(b1-3)GalNAc(b1-4)Gal(b1-4)Glc
# Outline: as §1
# [26] = target: Gal(b1-3)GalNAc(b1-4)[Neu5Ac(a2-3)]Gal(b1-4)Glc
# Outline: as §1
# Gal(b1-3)GlcNAc = target: Gal(b1-3)GlcNAc
# Outline: as §1
# [27] = target: Gal(b1-3)GlcNAc(a1-3)Gal(b1-4)GlcNAc
# Outline: as §1
binder,measurement,setting,value
rMpL (Macrolepiota procera) (protein) MSTQVSSGRTYKITNVIAGTVIDLSGEDNKSIIGYPYHSGKNQQWTFNWTGKAWTLRSASSGSYLGIEGTPAGGTRLVAVNDPFEWHIWRDEANENAFRIFVPFTNYNLDLSGYGDTTPGTPVQLWWTWEGLHQTWTIDRP,glycan array binding signal (z-score),[1],-0.172
same,glycan array binding signal (z-score),[2],-0.26
same,glycan array binding signal (z-score),[3],-0.253
same,glycan array binding signal (z-score),[4],-0.311
same,glycan array binding signal (z-score),[5],-0.26
same,glycan array binding signal (z-score),[6],-0.375
same,glycan array binding signal (z-score),Fuc(a1-4)GlcNAc,-0.316
same,glycan array binding signal (z-score),Fuc(b1-3)GlcNAc,-0.333
same,glycan array binding signal (z-score),Gal(a1-2)Gal,-0.277
same,glycan array binding signal (z-score),Gal(a1-3)Gal,-0.212
same,glycan array binding signal (z-score),Gal(a1-3)Gal(b1-3)GlcNAc,-0.121
same,glycan array binding signal (z-score),[7],-0.233
same,glycan array binding signal (z-score),[8],-0.203
same,glycan array binding signal (z-score),[9],-0.292
same,glycan array binding signal (z-score),[10],-0.297
same,glycan array binding signal (z-score),[11],-0.131
same,glycan array binding signal (z-score),Gal(a1-3)Gal(b1-4)Glc,-0.194
same,glycan array binding signal (z-score),Gal(a1-3)Gal(b1-4)GlcNAc,-0.311
same,glycan array binding signal (z-score),[12],-0.39
same,glycan array binding signal (z-score),[13],-0.031
same,glycan array binding signal (z-score),[14],-0.326
same,glycan array binding signal (z-score),[15],-0.27
same,glycan array binding signal (z-score),[16],-0.328
same,glycan array binding signal (z-score),[17],-0.104
same,glycan array binding signal (z-score),Gal(a1-3)GalNAc,-0.328
same,glycan array binding signal (z-score),[18],-0.235
same,glycan array binding signal (z-score),[19],-0.165
same,glycan array binding signal (z-score),Gal(a1-4)Gal(b1-4)Glc,-0.271
same,glycan array binding signal (z-score),Gal(a1-4)Gal(b1-4)GlcNAc,-0.406
same,glycan array binding signal (z-score),[20],0.109
same,glycan array binding signal (z-score),[21],-0.334
same,glycan array binding signal (z-score),Gal(a1-4)GlcNAc,-0.351
same,glycan array binding signal (z-score),Gal(a1-6)Glc,-0.305
same,glycan array binding signal (z-score),Gal(b1-2)Gal,-0.322
same,glycan array binding signal (z-score),Gal(b1-3)Gal,-0.239
same,glycan array binding signal (z-score),Gal(b1-3)Gal(b1-4)GlcNAc,-0.257
same,glycan array binding signal (z-score),Gal(b1-3)GalNAc,-0.273
same,glycan array binding signal (z-score),[22],-0.084
same,glycan array binding signal (z-score),[23],-0.155
same,glycan array binding signal (z-score),Gal(b1-3)GalNAc(b1-3)Gal,-0.243
same,glycan array binding signal (z-score),[24],-0.22
same,glycan array binding signal (z-score),[25],-0.17
same,glycan array binding signal (z-score),[26],-0.293
same,glycan array binding signal (z-score),Gal(b1-3)GlcNAc,0.376
same,glycan array binding signal (z-score),[27],0.896
